The results in this text go back to the supplement of paper PMC10126150.

Sequences with one replicate were seen in a single cluster, so their values are uncertain.

This series concerns ATP. Briefly: switch fluorescence ratio, 500 uM ATP over buffer (Cy3 cluster intensity, sum of 5 cycles each) (fold (ratio)); higher = stronger signal-on switching upon ATP binding; sequences stand for … in TCGTCGGCAGCGTCAGATGTGTATAAGAGACAGTTTTTTTTTTTTTTTTTTTTTTTTT…TC. Conditions: aptamer strand: ATP DNA aptamer (quencher-CACCTGGGGGAGTATTGCGGAGGAAGG + anchor), 100 nM annealed; ATP concentration: 500 uM; one replicate. The gist of the method:
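Cy3-labelled switching-strand clusters on a modified Illumina MiSeq flow-cell were annealed to 100 nM quencher-labelled ATP aptamer and imaged first in selection buffer, then after 15 min with 500 uM ATP at 22 °C. NaOH stripping and re-annealing separated each of five buffer/ATP cycles, and clusters outside 100-1000 RFU were excluded. The fluorescence ratio sums target-cycle Cy3 intensity over buffer-cycle Cy3 intensity per cluster and averages it per switch-domain sequence.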
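Further: ATP exposure 15 min at 22 °C before imaging.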

Turning to ATTACAGAAG, the switch fluorescence ratio is 1.05.
With TCGACCTTAG the figure was 1.01.
As for CAGACCTAGT, the figure is 0.986; as for ATAAACGAAG, 0.992; as for GCTATTTATT, 0.983.
As for CAGCTCTATT, the figure is 1.03; as for GCCGGTGCAT, 0.963.
Take GAGCGCCCAA: the switch fluorescence ratio was 1.01.
With TGAAAATCGT the figure was 0.995; with AAATAATGTT, 1.02; with CCAATATTTT, 1.01.
As for ACTGGAGCGA, the figure is 1.41.
As for AGTCTCGCCT, the figure is 0.986; as for CACAGGCTTT, 0.957; as for CCATAGACGT, 0.964.
Turning to CCTTACTTCG, the switch fluorescence ratio is 3.42.
For AATCAGTGAA, the switch fluorescence ratio worked out at 1.02.
With GAGAGGGAGT the figure was 1.04; with GGATAAGACA, 1.
With CTTGTCAATG the figure was 1.01; with GCCTCGGTTC, 1.04.
As for TCGCAGGTCG, the switch fluorescence ratio worked out at 1.02.
As for TGTTAAATA, the figure is 1.04.
As for TTGCGCTACC, the figure is 1.18; as for GATTCTAGAT, 1.05; as for AGTTTTCATA, 0.973.
As for GACCGCTGAT, the figure is 1.18.
In the case of GGAAGATGAT, the switch fluorescence ratio was found to be 1.04.
As for CGTAATTGG, the figure is 1.01; as for TTTCGCAAAA, 1.04; as for TTACATCCCC, 1.21.
In the case of CGCATCAATT, the switch fluorescence ratio came out at 1.04.
Take ACATTGTTGT: the switch fluorescence ratio is 0.973.
With GGGATATGCG the figure was 1.01; with TTGTACTTGA, 0.99.
With TCGAGTCGCA the figure was 1.06; with TCAGATATTT, 0.912.
As for CCTGAACGCG, the figure is 1.05.
Take TGTTATTGTG: the switch fluorescence ratio worked out at 1.01.
As to TAGTGGGTAA, the switch fluorescence ratio was 1.01.
As for AGAGTGAAGT, the figure is 0.998.
Regarding GCTAGACTGG, the switch fluorescence ratio turned out to be 1.01.
As for GGCTGGCTGG, the figure is 0.95; as for TACATTAGGA, 0.97.
For the sequence AACTGAAAGG, the switch fluorescence ratio was 0.949.
As for GACAAACGAT, the figure is 1.27; as for TTGCGTCCGG, 0.987; as for AGCAAAGGCT, 1.01.
As for GTAATAGACG, the switch fluorescence ratio came out at 0.984.
With GTTTGGAAAC the figure was 1.06; with AGGCCAACTG, 1.15.
As to CTCGGGGAAG, the switch fluorescence ratio came to 0.985.
With TATGATTGCC the figure was 1.02; with GTGCAAAGTG, 0.986.
With TCCATTTTTG the figure was 0.944; with GCGGTAACGA, 1.04.
As for ATTATCGGCT, the figure is 0.956.
Take CACTTGAAGC: the switch fluorescence ratio was 1.02.
With CACTCATATT the figure was 1.04; with GAGAGGTCCT, 1.
With ATGATTCGGG the figure was 0.97.
With CGGGATCGAG the figure was 1.02; with TAGTTAACC, 0.972; with TCCTAGTGGA, 0.946.
Consider TGCATACTTA, for which the switch fluorescence ratio is 1.1.
With CTCCATCGGT, the switch fluorescence ratio turned out to be 1.05.
As for GAACCTTAGA, the figure is 1.04; as for GAGTCTATGG, 0.963; as for ACCGTAATTC, 4.45.
As for CTCGTGGCTA, the figure is 0.997; as for GGGTTAGCAT, 0.96; as for GAACGCCGCC, 1.65.
With CACGAGATAG the figure was 1.11.
As for TGGCGGTGGG, the switch fluorescence ratio was found to be 1.
As for AACCGTTGTG, the figure is 0.987.
With CCCTACCAGT the figure was 1.05; with CCGTGGAAGG, 0.994.
With ATGAACATAT the figure was 0.996; with GAGTACTTGG, 0.971.
In the case of CAGAGTAGTG, the switch fluorescence ratio was determined as 0.973.
As for CAGTTAGTTT, the figure is 0.96.
As for GGTCGATCGT, the figure is 0.94.
As to CCCGCACTGT, the switch fluorescence ratio was 3.52.
Take CGCGCTTATT: the switch fluorescence ratio was 1.03.
As for CCAAAAATCG, the figure is 1.02; as for TAGAGTGGGT, 0.979.
On to TATTAATGTA, for which the switch fluorescence ratio came to 1.01.
Turning to CTGTTTATAG, the switch fluorescence ratio amounted to 0.988.
With CAAGGTGTAG the figure was 1.03; with ATCATGGGTC, 1.02.
As for TTCGAAGATC, the switch fluorescence ratio stood at 1.01.
Turning to ACTATGTTAT, the switch fluorescence ratio worked out at 1.03.
With TACCTTGCA the figure was 1.06.
With CGCGAAGTAC the figure was 2.58; with GCCGGAAGAT, 1.02.
With TTTCTCAGAA, the switch fluorescence ratio came to 0.977.
With ACTAGGTTGG the figure was 1.03; with AATGGGTCT, 1.04; with AACTTGTCGT, 0.98.
As for AACCTCAAGG, the figure is 0.993.
As for CCCGTACTTG, the figure is 0.975; as for GTATATTAAA, 0.985; as for GTAATTCAAG, 1.04.
As to CCTGCGAGCA, the switch fluorescence ratio came out at 1.06.
With ACCTATATGG, the switch fluorescence ratio came out at 1.02.
As for TTAATTAGCA, the figure is 1.02; as for ATCCTGAAGG, 1.07; as for GGTTGAGCTA, 1.05.
As for CAGTTAACCG, the figure is 0.969.
As for GTGGTGTGCT, the figure is 0.985; as for TCGAGGTCAC, 0.964; as for ATCTCTTTGC, 1.06.
With TGTTCATGCT, the switch fluorescence ratio turned out to be 0.96.
With TCTGAGCGCT the figure was 1.07; with GAGTTTAAAA, 0.999; with GGTTCCTGGT, 0.967.
As for TGCTGCCGCG, the figure is 1.02; as for TGAGGGATG, 0.989.
With TGCCGAGTGA the figure was 1.01; with AGCTGGCAA, 1.03.
